{
  "source": "paper PMC4305620",
  "about": "(FEBS Open Bio, 2014)",
  "proteins": {"B1": {"name": "solubilized NH6-Salp15 (natural protein, Ixodes scapularis)", "chain": "MRGSHHHHHHGSGSGSGIEGRPYNGTGSVAANESGPTKADASTADKDTKKNNVQLRFPNYISNHQKLALKLLKICKDSKSSHNSLSSRSSDVINDKYVDFKNCTFLCKHGNDVNVTLNLPEDTPCGPNGQTCAEKNKCVGHIPGC"}},
  "target": "the molecule itself",
  "experiment": "SEC",
  "data": [
    {"protein": "B1", "values": [
      {"measurement": "stoichiometry N", "value": 2}
    ]}
  ]
}
